Laboratory results from the supplement of paper PMC4166925.
± gives the standard deviation of the averaged measurements. The full ranking holds about 33,000 sequences; the median of “E-score (dimensionless, -0.5 to 0.5)” is about -0.046, and the highest 2% start at about 0.36. This is one part of the list.

tested on: T1, SpTbr T-box DNA-binding domain (GST fusion); assay: PBM E-score of 8-mer (E-score (dimensionless, -0.5 to 0.5)); Tbr is Tbrain of the sea star Patiria miniata (Pm) or the sea urchin Strongylocentrotus purpuratus (Sp); higher = stronger binding preference; most listed sequences are background and not binding sites; conditions: the construct has about 5 more residues each side
T1 sequence: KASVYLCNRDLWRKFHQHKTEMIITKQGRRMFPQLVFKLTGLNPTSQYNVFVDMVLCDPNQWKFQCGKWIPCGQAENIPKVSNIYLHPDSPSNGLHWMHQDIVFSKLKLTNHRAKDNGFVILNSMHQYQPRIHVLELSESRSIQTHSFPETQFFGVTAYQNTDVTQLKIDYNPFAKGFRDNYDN
Method in brief: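 Primer extension turned Universal Agilent oligonucleotide arrays double-stranded. They were incubated with 200 nM protein in PBS (pH 7.5); the protein was a GST-fused Tbr T-box DNA-binding domain expressed in BL21 E. coli at 20 °C and purified on glutathione. Every ungapped 8-mer was scored from the scanned, quantified probe intensities, and the Universal PBM Analysis Suite gave each an enrichment E-score averaged over duplicate arrays.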

| Sequence | PBM E-score of 8-mer |
| --- | --- |
| AGGTTTGG | -0.181 ± 0.03 |
| ACAAGTCC | -0.00732 ± 0.06 |
| ATCTAGAT | 0.0448 ± 0.016 |
| CAGTGCCA | 0.1526 ± 0.00012 |
| ATCAGTCA | -0.161 ± 0.064 |
| ATGAACTC | -0.16 ± 0.037 |
| CTCTTAGC | 0.081 ± 0.038 |
| GAATAACA | 0.173 ± 0.045 |
| AGGAGAAA | -0.142 ± 0.051 |
| CTCTATGA | -0.107 ± 0.033 |
| AAATTGCG | 0.0459 ± 0.085 |
| AATAGACA | -0.00955 ± 0.034 |
| GACCACTA | -0.0501 ± 0.019 |
| GTGTACAA | 0.0756 ± 0.0062 |
| ACCGGAGT | -0.0199 ± 0.04 |
| GGCTTTAC | -0.126 ± 0.075 |
| ACGCTCCC | 0.0294 ± 0.062 |
| AAGCCATA | -0.172 ± 0.062 |
| GAACGGTC | 0.142 ± 0.024 |
| TCTTTTCA | -0.0789 ± 0.052 |
| ATTACCAC | 0.21 ± 0.013 |
| AGGAAAAT | -0.182 ± 0.018 |

| Sequence | PBM E-score of 8-mer |
| --- | --- |
| AATATATC | -0.253 ± 0.041 |
| GAAGCTTA | -0.213 ± 0.012 |
| AACTGACA | 0.303 ± 0.024 |
| CTATGTAC | -0.245 ± 0.085 |
| GAGACGGC | -0.0533 ± 0.024 |
| CGGCACCA | 0.18 ± 0.056 |
| GATTAAGA | -0.0555 ± 0.026 |
| GGATCAGA | -0.201 ± 0.054 |
| AATACCAA | -0.09091 ± 0.00071 |
| AACTAATC | -0.184 ± 0.048 |
| AACAAGAG | -0.0913 ± 0.05 |
| CATGCCAC | 0.195 ± 0.055 |
| AAAATTAA | -0.08 ± 0.041 |
| CTTTCACA | 0.44384 ± 0.0002 |
| GCGGCCTA | 0.0469 ± 0.022 |
| CTACTCAG | -0.203 ± 0.072 |
| TACGTGAA | 0.0338 ± 0.073 |
| CTAAGGGA | -0.162 ± 0.0075 |
| AATGCCTG | -0.0548 ± 0.018 |
| AGCGGTCC | -0.175 ± 0.0031 |
| CCCGACGG | -0.0255 ± 0.11 |
| ATAAGTTC | -0.0968 ± 0.0042 |

| Sequence | PBM E-score of 8-mer |
| --- | --- |
| TATCGCCA | 0.25 ± 0.013 |
| CATCACAA | 0.204 ± 0.042 |
| TATCGACA | 0.289 ± 0.017 |
| ACAAGTCT | 0.108 ± 0.023 |
| AGACATAT | -0.0648 ± 0.081 |
| CACTCGTC | 0.17 ± 0.042 |
| GAACTACA | 0.0335 ± 0.0052 |
| GTGATCCA | 0.108 ± 0.054 |
| AAAGCCGG | -0.0543 ± 0.01 |
| AGCGGCGC | -0.0425 ± 0.033 |
| CGACATCA | -0.062 ± 0.0075 |
| GGGAGCCA | -0.16 ± 0.016 |
| AGATAGTA | -0.0632 ± 0.013 |
| GCCCTTAA | -0.0893 ± 0.13 |
| GAAGGGTC | -0.132 ± 0.03 |
| CGGGCAAC | -0.113 ± 0.063 |
| GTACCACA | -0.11 ± 0.062 |
| CATAATAG | -0.164 ± 0.03 |
| AGCTTCAT | -0.0645 ± 0.016 |
| CGACCCGC | 0.0932 ± 0.075 |
| CCATATCA | -0.00441 ± 0.0051 |
| ACGCCTGG | 0.22 ± 0.026 |

| Sequence | PBM E-score of 8-mer |
| --- | --- |
| GTTTTTTA | -0.177 ± 0.01 |
| CCGGTAGG | -0.0772 ± 0.028 |
| GCTTCTCA | 0.0746 ± 0.007 |
| CACTCGGC | 0.143 ± 0.021 |
| AGTCTTTC | -0.115 ± 0.032 |
| AACTACTC | 0.0265 ± 0.012 |
| CCTCGGGA | -0.0609 ± 0.073 |
| AACTTTAC | 0.18 ± 0.033 |
| ATGCACCA | -0.193 ± 0.019 |
| AAGCGAAT | -0.0981 ± 0.015 |
| GGATACCC | -0.32 ± 0.087 |
| CGCGTCCA | 0.0205 ± 0.019 |
| CGCCTTTC | 0.171 ± 0.013 |
| ATAAATGA | 0.0153 ± 0.068 |
| TAATTGAA | -0.0584 ± 0.097 |
| AGACGAAA | -0.224 ± 0.0093 |
| CCAGCGCC | 0.151 ± 0.039 |
| AATCCCAT | -0.202 ± 0.0064 |
| CGAGATCG | 0.175 ± 0.058 |
| GATCCCGC | 0.0824 ± 0.045 |
